In publication PMC11402128, “The stability of FKBP9 maintained by BiP is crucial for glioma progression” (Genes & Diseases, 2023):
No constants are given. Whether binding was seen depends on the method and setting. In cells and extracts the contact can be indirect. Some entries that bind do so weakly or less than the wild type. For part of these data: Sequences can lack the tags named with a protein.

The chains behind the UniProt entries cited, without tags or fusion partners. Residues count along the entry.
UniProt P11021, residues 19-654: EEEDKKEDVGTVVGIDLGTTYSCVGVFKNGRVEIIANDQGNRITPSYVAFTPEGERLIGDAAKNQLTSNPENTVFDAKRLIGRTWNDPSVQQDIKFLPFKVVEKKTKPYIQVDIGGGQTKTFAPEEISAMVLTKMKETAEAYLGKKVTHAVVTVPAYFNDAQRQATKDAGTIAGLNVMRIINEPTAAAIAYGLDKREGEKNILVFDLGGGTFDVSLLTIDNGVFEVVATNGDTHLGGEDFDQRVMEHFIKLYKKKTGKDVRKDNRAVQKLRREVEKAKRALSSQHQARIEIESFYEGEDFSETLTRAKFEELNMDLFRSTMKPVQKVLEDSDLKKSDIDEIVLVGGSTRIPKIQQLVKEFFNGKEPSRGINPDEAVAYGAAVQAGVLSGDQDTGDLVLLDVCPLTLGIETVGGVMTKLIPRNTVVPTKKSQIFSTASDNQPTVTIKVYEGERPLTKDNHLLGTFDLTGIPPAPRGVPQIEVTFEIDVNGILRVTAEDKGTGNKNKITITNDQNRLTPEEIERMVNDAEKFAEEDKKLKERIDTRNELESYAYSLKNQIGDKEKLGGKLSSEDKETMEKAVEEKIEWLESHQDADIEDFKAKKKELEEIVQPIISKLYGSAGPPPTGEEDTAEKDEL
UniProt P10809, residues 27-573: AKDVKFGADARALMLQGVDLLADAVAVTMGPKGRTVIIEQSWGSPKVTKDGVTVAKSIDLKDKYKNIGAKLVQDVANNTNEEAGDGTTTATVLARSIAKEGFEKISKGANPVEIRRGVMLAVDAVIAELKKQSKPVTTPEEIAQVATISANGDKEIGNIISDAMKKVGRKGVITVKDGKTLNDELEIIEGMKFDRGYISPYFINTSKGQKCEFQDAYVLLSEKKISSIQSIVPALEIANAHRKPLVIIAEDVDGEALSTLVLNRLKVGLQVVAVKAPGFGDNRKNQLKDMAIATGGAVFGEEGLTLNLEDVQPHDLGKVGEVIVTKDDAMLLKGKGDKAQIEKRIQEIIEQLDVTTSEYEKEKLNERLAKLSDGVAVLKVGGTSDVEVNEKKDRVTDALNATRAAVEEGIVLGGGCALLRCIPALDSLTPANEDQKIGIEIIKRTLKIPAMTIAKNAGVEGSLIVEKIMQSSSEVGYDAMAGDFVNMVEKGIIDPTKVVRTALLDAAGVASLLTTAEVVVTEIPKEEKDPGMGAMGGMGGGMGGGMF
UniProt Q00613: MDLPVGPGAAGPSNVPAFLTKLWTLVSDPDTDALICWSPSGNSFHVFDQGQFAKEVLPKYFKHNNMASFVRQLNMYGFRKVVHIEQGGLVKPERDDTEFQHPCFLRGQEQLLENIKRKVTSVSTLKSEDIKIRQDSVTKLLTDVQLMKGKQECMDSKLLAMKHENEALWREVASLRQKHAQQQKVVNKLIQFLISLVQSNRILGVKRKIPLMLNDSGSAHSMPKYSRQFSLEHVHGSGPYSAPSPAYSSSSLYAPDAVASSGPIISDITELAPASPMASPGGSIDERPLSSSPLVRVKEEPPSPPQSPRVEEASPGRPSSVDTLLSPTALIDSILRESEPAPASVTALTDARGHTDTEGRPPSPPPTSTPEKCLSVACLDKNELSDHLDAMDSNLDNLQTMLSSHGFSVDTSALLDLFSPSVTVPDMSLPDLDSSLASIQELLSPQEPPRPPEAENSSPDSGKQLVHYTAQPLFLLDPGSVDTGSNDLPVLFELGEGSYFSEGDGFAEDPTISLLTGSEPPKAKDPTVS

T1: FK506-binding protein 9 (FKBP9), endogenous (human (endogenous in T98G and U251)) (UniProt O95302)
T1 sequence: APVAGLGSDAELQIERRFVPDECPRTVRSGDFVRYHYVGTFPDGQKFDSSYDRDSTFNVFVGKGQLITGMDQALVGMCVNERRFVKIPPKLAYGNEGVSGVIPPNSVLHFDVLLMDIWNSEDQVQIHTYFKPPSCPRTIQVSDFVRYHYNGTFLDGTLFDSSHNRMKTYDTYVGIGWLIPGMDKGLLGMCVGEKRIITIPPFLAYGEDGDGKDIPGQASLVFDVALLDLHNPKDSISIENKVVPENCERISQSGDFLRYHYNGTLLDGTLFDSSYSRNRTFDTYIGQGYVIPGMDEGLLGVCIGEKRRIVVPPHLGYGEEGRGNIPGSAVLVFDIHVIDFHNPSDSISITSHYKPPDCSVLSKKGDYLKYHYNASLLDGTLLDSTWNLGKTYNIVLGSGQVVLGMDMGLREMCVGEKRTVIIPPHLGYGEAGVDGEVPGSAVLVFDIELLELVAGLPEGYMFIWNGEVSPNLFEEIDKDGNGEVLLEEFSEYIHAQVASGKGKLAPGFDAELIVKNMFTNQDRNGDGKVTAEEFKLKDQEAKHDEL

T2: Flag-HA-labeled FKBP9 (FKBP9-HA) (human) (UniProt O95302)
T2 sequence: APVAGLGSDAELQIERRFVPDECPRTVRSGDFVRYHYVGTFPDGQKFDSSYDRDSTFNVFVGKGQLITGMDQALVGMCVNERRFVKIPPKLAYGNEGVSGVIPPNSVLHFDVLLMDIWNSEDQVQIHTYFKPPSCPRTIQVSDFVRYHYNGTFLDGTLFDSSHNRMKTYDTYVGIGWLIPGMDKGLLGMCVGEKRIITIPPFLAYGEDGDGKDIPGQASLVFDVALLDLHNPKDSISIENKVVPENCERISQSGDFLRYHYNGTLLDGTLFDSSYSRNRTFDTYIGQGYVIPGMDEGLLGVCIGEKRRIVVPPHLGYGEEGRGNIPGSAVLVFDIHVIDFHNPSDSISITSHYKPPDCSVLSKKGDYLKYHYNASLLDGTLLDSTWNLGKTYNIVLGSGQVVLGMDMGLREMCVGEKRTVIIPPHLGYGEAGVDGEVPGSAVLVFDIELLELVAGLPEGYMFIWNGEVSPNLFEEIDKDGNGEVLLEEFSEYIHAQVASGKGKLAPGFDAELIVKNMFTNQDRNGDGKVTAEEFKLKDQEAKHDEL


Columns and labels:
[1] = target: T1, FK506-binding protein 9 (FKBP9), endogenous (human (endogenous in T98G and U251)); test: co-IP; endogenous proteins; FKBP9 antibody co-immunoprecipitation from protein lysate of T98G and U251 cells, IgG as negative control, Western blot
[2] = target: T2, Flag-HA-labeled FKBP9 (FKBP9-HA) (human); test: co-IP; HA antibody co-immunoprecipitation from lysate of T98G cells expressing HA-tagged proteins (FKBP9-HA, 1461-HA, 903-HA, BiP-HA or EGFP-HA), detected by Western blot; buffer 50 mM Tris-HCl pH 7.4, 150 mM NaCl, 3 mM EDTA, 0.5% Triton X-100
[3] = target: Flag-HA-labeled BiP (BiP-HA) (human) (UniProt P11021); test: as above

binding [1] | binding [2] | binding [3] | Molecule
binds | binds |  | binding immunoglobulin protein (BiP), endogenous (from UniProt P11021 19-654)
 | no binding |  | Hsp60, endogenous (from UniProt P10809 27-573)
 | no binding |  | HSF1, endogenous (from UniProt Q00613 1-529)
 |  | binds | human recombinant protein FKBP9 (TP322307, Origene) (natural protein, UniProt O95302 25-570, looked up, also called purified FKBP9; source: bought: Origene (TP322307)) APVAGLGSDAELQIERRFVPDECPRTVRSGDFVRYHYVGTFPDGQKFDSSYDRDSTFNVFVGKGQLITGMDQALVGMCVNERRFVKIPPKLAYGNEGVSGVIPPNSVLHFDVLLMDIWNSEDQVQIHTYFKPPSCPRTIQVSDFVRYHYNGTFLDGTLFDSSHNRMKTYDTYVGIGWLIPGMDKGLLGMCVGEKRIITIPPFLAYGEDGDGKDIPGQASLVFDVALLDLHNPKDSISIENKVVPENCERISQSGDFLRYHYNGTLLDGTLFDSSYSRNRTFDTYIGQGYVIPGMDEGLLGVCIGEKRRIVVPPHLGYGEEGRGNIPGSAVLVFDIHVIDFHNPSDSISITSHYKPPDCSVLSKKGDYLKYHYNASLLDGTLLDSTWNLGKTYNIVLGSGQVVLGMDMGLREMCVGEKRTVIIPPHLGYGEAGVDGEVPGSAVLVFDIELLELVAGLPEGYMFIWNGEVSPNLFEEIDKDGNGEVLLEEFSEYIHAQVASGKGKLAPGFDAELIVKNMFTNQDRNGDGKVTAEEFKLKDQEAKHDEL
 | no binding |  | Calnexin, endogenous (protein, UniProt P27824 21-592) HDGHDDDVIDIEDDLDDVIEEVEDSKPDTTAPPSSPKVTYKAPVPTGEVYFADSFDRGTLSGWILSKAKKDDTDDEIAKYDGKWEVEEMKESKLPGDKGLVLMSRAKHHAISAKLNKPFLFDTKPLIVQYEVNFQNGIECGGAYVKLLSKTPELNLDQFHDKTPYTIMFGPDKCGEDYKLHFIFRHKNPKTGIYEEKHAKRPDADLKTYFTDKKTHLYTLILNPDNSFEILVDQSVVNSGNLLNDMTPPVNPSREIEDPEDRKPEDWDERPKIPDPEAVKPDDWDEDAPAKIPDEEATKPEGWLDDEPEYVPDPDAEKPEDWDEDMDGEWEAPQIANPRCESAPGCGVWQRPVIDNPNYKGKWKPPMIDNPSYQGIWKPRKIPNPDFFEDLEPFRMTPFSAIGLELWSMTSDIFFDNFIICADRRIVDDWANDGWGLKKAADGAAEPGVVGQMIEAAEERPWLWVVYILTVALPVFLVILFCCSGKKQTSGMEYKKTDAPQPDVKEEEEEKEEEKDKGDEEEEGEEKLEEKQKSDAEEDGGTVSQEEEDRKPKAEEDEILNRSPRNRKPRRE
